# Assay results: PubChem BioAssay (NCATS)
# Several values for one entry are separate records, joined by “and”; a condition that tells them apart may be missing. Equal entries are not always repeated. Inconclusive means that the source gave no clear call. Such entries were picked first, then a sample of the others. A call without a number means that no potency is given here. For some assays here: Potencies beside an inconclusive call are fits to weak or partial responses and may not hold up. Activity calls are given as the source filed them. Calls come from the whole dose curve; as a rule, active = well fitted curve in the direction sought with a large enough effect; inconclusive = small, poorly fitted or top-dose-only effect, or another doubt; inactive = no such curve, though single readings can be large; an effect the other way counts as inactive or inconclusive.
# How the values were obtained:
# [1] = system: Zika virus NS2B-NS3 protease (unlinked); assay: Optimization of GU AMC qHTS for Zika virus inhibitors: Unlinked NS2B-NS3 protease assay (AID 1347151); note: potency is the fitted concentration of half-maximal effect; nearly all actives have a fitted effect of over 80% in size
# Outline: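 Percent inhibition is derived from the 15-min change in AMC fluorescence, normalized against no-inhibitor and no-enzyme controls, then fitted to a 4-parameter Hill curve. Aprotinin was the intraplate control.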
# [2] = qHTS of pediatric cancer cell lines to identify multiple opportunities for drug repurposing: Confirmatory screen for OHS-50 cells (AID 1347128); details: OHS-50 osteosarcoma cells viability; series mostly up to 45.9 µM;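 note: compound exposure lasted 48 h at 37 degrees C; nearly all actives have a fitted effect of over 55% in size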; note: potency is the fitted concentration of half-maximal effect
# Outline: (§1)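 Cells (500-1,000/well) rested 5 h, then received compounds for 48 h; metabolically active cells were measured by CellTiter-Glo luminescence. Final concentrations spanned up to 46 µM (MIPE, 11-point) or 0.59 nM-46 µM (NPC, 8-point) in primary screens, 11-point in follow-ups.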
# [3] = qHTS of pediatric cancer cell lines to identify multiple opportunities for drug repurposing: Confirmatory screen for SK-N-SH cells (AID 1347129);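 note: cells exposed to compound for 48 h before viability read; nearly all actives have a fitted effect of over 60% in size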; note: potency is the fitted concentration of half-maximal effect
# Outline: as §1
# [4] = qHTS of pediatric cancer cell lines to identify multiple opportunities for drug repurposing: Confirmatory screen for Saos-2 cells (AID 1347127); note: nearly all actives have a fitted effect of over 60% in size; note: potency is the fitted concentration of half-maximal effect
# Outline: as §1
# [5] = system: Zika virus NS2B-NS3 protease; assay: Primary screen GU AMC qHTS for Zika virus inhibitors (AID 1347154); note: potency is the fitted concentration of half-maximal effect; nearly all actives have a fitted effect of over 70% in size
# Outline: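 Fluorogenic AMC-substrate cleavage by noncovalent NS2B-NS3 protease complex (25 nM, pH 8.0 Tris buffer with Tween 20) followed for 15 minutes at room temperature (~20% conversion). Percent inhibition from ex340/em450 signal change, fitted by 4-parameter Hill equation.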
# [6] = system: Zika virus NS2B-NS3 protease (linked construct); assay: Confirmatory screen NINDS AMC qHTS for Zika virus inhibitors (AID 1347152);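 note: AMC fluorescence gain from cleaved Bz-Nle-KRR-AMC substrate over 15 min; top concentration of the series differs between compounds; nearly all actives have a fitted effect of over 70% in size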
# Outline: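 In this dose-response qHTS, AMC release from 10 microM Bz-Nle-KRR-AMC by 1 nM linked protease is measured over 15 minutes (about 20% conversion) at pH 8.0. Percent inhibition is fitted to a 4-parameter Hill curve.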
# [7] = system: Zika virus NS2B-NS3 protease (unlinked complex); assay: Confirmatory screen GU AMC qHTS for Zika virus inhibitors (AID 1347153); note: nearly all actives have a fitted effect of over 70% in size
# Outline: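 Unlinked NS2B-NS3 complex (25 nM) in 10 mM Tris-HCl pH 8.0, 0.01% Tween 20 preincubated 15 min with compound, then 10 microM Bz-Nle-KRR-AMC (Km 18.3 µM). Fluorescence change over 15 min, normalized, Hill-fitted.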
# Tags give direction and shape of the fitted curve.
structure (smiles),measurement,setting,value
Cc1cn([C@H]2C=C[C@@H](CO)O2)c(=O)[nH]c1=O,Potency,[1],"inconclusive: 8.44 µM [inhibitor, single point]"
C[C@@H](CN1CC(=O)NC(=O)C1)N1CC(=O)NC(=O)C1,Potency,[2],inactive
same,Potency,[3],inactive
O=C(O)c1ccc(-c2c[nH]c3ncc(-c4ccccc4)cc23)cc1C1CCCC1,Potency,[4],inactive
same,Potency,[3],"inconclusive: 0.0372 µM [cytotoxic, full curve, poor fit]"
COc1ccccc1N1CCN(CC(O)COc2cccc3ccccc23)CC1 (stereo not given),Potency,[1],"inconclusive: 16.8 µM [inhibitor, partial curve, poor fit]"
CC(=O)OCC(CCn1cnc2cnc(N)nc21)COC(C)=O,Potency,[1],active: 26.7 µM
same,Potency,[5],"inconclusive: 32.2 µM [inhibitor, single point] and inconclusive: 27.1 µM [inhibitor, single point]"
O=C(Nc1cccc(Br)c1)c1cccc(S(=O)(=O)N2CCCCCC2)c1,Potency,[4],inactive
same,Potency,[3],inactive
O=C(CCc1ccc(O)cc1)c1c(O)cc(O)cc1O,Potency,[4],inactive
same,Potency,[2],inactive
same,Potency,[3],inactive
same,Potency,[5],"inconclusive: 13.6 µM [inhibitor, full curve, poor fit]"
CCOC(=O)Nc1ccc(NCc2ccc(F)cc2)nc1N,Potency,[6],inactive
same,Potency,[7],inactive
CC(C)(C#N)c1cc(Cn2cncn2)cc(C(C)(C)C#N)c1,Potency,[2],inactive
COc1ccc(-c2nc(N3CCOCC3)c3sc(CN(C)c4ncc(C(=O)NO)cn4)cc3n2)cn1,Potency,[4],"inconclusive: 1.04 µM [cytotoxic, full curve, poor fit]"
same,Potency,[2],"inconclusive: 1.85 µM [cytotoxic, partial curve, poor fit]"
same,Potency,[5],"inconclusive: 7.64 µM [inhibitor, partial curve, poor fit]"
